# Data taken from the supplement of paper PMC12217912.
# This is one part of the list. Sequences were assembled here from the parent chain. Values near 0.05 are background.
# B1: TEV protease; numbered along this chain (parent)
# chain: MGESLFKGPRDYNPISSSICHLTNESDGHTTSLYGIGFGPFIITNKHLFRRNNGTLVVQSLHGVFKVKDTTTLQQHLVDGRDMIIIRMPKDFPPFPQKLKFREPQREERICLVTTNFQTKSMSSMVSDTSCTFPSGDGIFWKHWIQTKDGQCGSPLVSTRDGFIVGIHSASNFTNTNNYFTSVPKNFMELLTNQEAQQWVSGWRLNADSVLWGGHKVFMVKPEEPFQPVKEATQL
# Variants of: B1
# Experiment: raw area under fraction-flipped curve 0-4 h after induction (AUC4h, not background-subtracted), DNA-recorder readout of cleavage of the substrate (dimensionless); higher = more cleavage of the substrate by the protease variant
# Conditions: temperature: 34 °C; time window: 0-4 h after rhamnose induction
# 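Note: Bxb1 expression induced with 0.2% (w/v) L-rhamnose at OD600 near 0.5, cultures sampled hourly, flipped fraction per protease–substrate barcode pair counted by paired-end Illumina sequencing.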
Variant,area with substrate ENAYFQS,area with substrate ENCYFQS,area with substrate ENDYFQS,area with substrate ENEYFQS,area with substrate ENFYFQS,area with substrate ENGYFQS,area with substrate ENKYFQS,area with substrate ENMYFQS,area with substrate ENPYFQS,area with substrate ENQYFQS,area with substrate ENRYFQS,area with substrate ENSYFQS,area with substrate ENWYFQS,area with substrate ENHYFQS,area with substrate ENIYFQS,area with substrate ENNYFQS,area with substrate ENTYFQS,area with substrate ENVYFQS,area with substrate ENYYFQS
MGESLFKGPRDYNPISSSICHLTNESDGHTTSLYGIGFGPFIITNKHLFRRNNGTLVVQSLHGVFKVKDTTTLQQHLVDGRDMIIIRMPKDFPPFPQKLKFREPQREERICLVTTNFQTKSMSSMVSDTSCTFPSGDGIFWKHWIQTKDGQDGSPLVSTRDGFIVGIHSASNFTNTNNYFTSVPKNFMELLTNQEAQQWVSGWRLNADSVLWGGHKVFMVKPEEPFQPVKEATQL [C152D],0.0461,0.0554,0.0715,0.0879,0.064,0.0735,0.058,0.0605,0.0757,0.0701,0.0545,0.0599,0.018,,,,,,
MGESLFKGPRDYNPISSSICHLTNESDGHTTSLYGIGFGPFIITNKHLFRRNNGTLVVQSLHGVFKVKDTTTLQQHLVDGRDMIIIRMPKDFPPFPQKLKFREPQREERICLVTTNFQTKSMSSMVSDTSCTFPSGDGIFWKHWIQTKDGQEGSPLVSTRDGFIVGIHSASNFTNTNNYFTSVPKNFMELLTNQEAQQWVSGWRLNADSVLWGGHKVFMVKPEEPFQPVKEATQL [C152E],0.0521,0.0584,0.0645,0.0716,,0.0701,,0.0638,0.0449,0.0584,0.0617,0.0641,,0.0473,0.0596,0.0621,0.0566,0.0422,0.0421
MGESLFKGPRDYNPISSSICHLTNESDGHTTSLYGIGFGPFIITNKHLFRRNNGTLVVQSLHGVFKVKDTTTLQQHLVDGRDMIIIRMPKDFPPFPQKLKFREPQREERICLVTTNFQTKSMSSMVSDTSCTFPSGDGIFWKHWIQTKDGQFGSPLVSTRDGFIVGIHSASNFTNTNNYFTSVPKNFMELLTNQEAQQWVSGWRLNADSVLWGGHKVFMVKPEEPFQPVKEATQL [C152F],0.0482,0.0597,0.0615,0.0599,0.0672,0.0599,0.0702,0.0689,0.0442,0.0713,0.0609,0.061,,0.0593,0.0629,0.0575,0.0486,0.0651,
MGESLFKGPRDYNPISSSICHLTNESDGHTTSLYGIGFGPFIITNKHLFRRNNGTLVVQSLHGVFKVKDTTTLQQHLVDGRDMIIIRMPKDFPPFPQKLKFREPQREERICLVTTNFQTKSMSSMVSDTSCTFPSGDGIFWKHWIQTKDGQGGSPLVSTRDGFIVGIHSASNFTNTNNYFTSVPKNFMELLTNQEAQQWVSGWRLNADSVLWGGHKVFMVKPEEPFQPVKEATQL [C152G],0.0594,0.0801,0.0522,0.0547,0.0784,0.0512,,0.0573,0.0495,0.0586,0.052,0.0632,0.0589,0.0653,0.0689,0.0556,0.0427,0.0652,0.06
MGESLFKGPRDYNPISSSICHLTNESDGHTTSLYGIGFGPFIITNKHLFRRNNGTLVVQSLHGVFKVKDTTTLQQHLVDGRDMIIIRMPKDFPPFPQKLKFREPQREERICLVTTNFQTKSMSSMVSDTSCTFPSGDGIFWKHWIQTKDGQMGSPLVSTRDGFIVGIHSASNFTNTNNYFTSVPKNFMELLTNQEAQQWVSGWRLNADSVLWGGHKVFMVKPEEPFQPVKEATQL [C152M],0.061,0.0513,,0.0401,0.0492,0.0575,0.0592,0.0713,0.0517,,,0.0543,,0.0518,,0.0622,0.0563,0.057,
MGESLFKGPRDYNPISSSICHLTNESDGHTTSLYGIGFGPFIITNKHLFRRNNGTLVVQSLHGVFKVKDTTTLQQHLVDGRDMIIIRMPKDFPPFPQKLKFREPQREERICLVTTNFQTKSMSSMVSDTSCTFPSGDGIFWKHWIQTKDGQVGSPLVSTRDGFIVGIHSASNFTNTNNYFTSVPKNFMELLTNQEAQQWVSGWRLNADSVLWGGHKVFMVKPEEPFQPVKEATQL [C152V],0.066,0.0552,0.0508,0.0574,0.0655,0.0584,0.0454,0.0504,0.0677,0.0684,0.0525,0.0453,,0.0657,0.0819,0.0723,0.0527,0.0852,
MGESLFKGPRDYNPISSSICHLTNESDGHTTSLYGIGFGPFIITNKHLFRRNNGTLVVQSLHGVFKVKDTTTLQQHLVDGRDMIIIRMPKDFPPFPQKLKFREPQREERICLVTTNFQTKSMSSMVSDTSCTFPSGDGIFWKHWIQTKDGQWGSPLVSTRDGFIVGIHSASNFTNTNNYFTSVPKNFMELLTNQEAQQWVSGWRLNADSVLWGGHKVFMVKPEEPFQPVKEATQL [C152W],0.0562,,0.0631,0.0559,0.0572,0.0589,0.0532,,0.0492,0.0556,0.0537,0.0559,,0.0587,0.0886,0.0635,0.0622,0.0616,
MGESLFKGPRDYNPISSSICHLTNESDGHTTSLYGIGFGPFIITNKHLFRRNNGTLVVQSLHGVFKVKDTTTLQQHLVDGRDMIIIRMPKDFPPFPQKLKFREPQREERICLVTTNFQTKSMSSMVSDTSCTFPSGDGIFWKHWIQTKDGQCGSPLVSTDDGFIVGIHSASNFTNTNNYFTSVPKNFMELLTNQEAQQWVSGWRLNADSVLWGGHKVFMVKPEEPFQPVKEATQL [R160D],0.062,0.0558,0.0673,0.0672,0.041,0.0661,,0.0836,,0.0526,,0.0697,,,,0.0622,0.071,0.082,0.0455
MGESLFKGPRDYNPISSSICHLTNESDGHTTSLYGIGFGPFIITNKHLFRRNNGTLVVQSLHGVFKVKDTTTLQQHLVDGRDMIIIRMPKDFPPFPQKLKFREPQREERICLVTTNFQTKSMSSMVSDTSCTFPSGDGIFWKHWIQTKDGQCGSPLVSTIDGFIVGIHSASNFTNTNNYFTSVPKNFMELLTNQEAQQWVSGWRLNADSVLWGGHKVFMVKPEEPFQPVKEATQL [R160I],0.0857,0.0662,0.0674,0.062,0.0639,0.0603,0.065,0.079,0.0586,0.0532,0.0326,0.0763,0.0702,0.0743,,0.0542,0.0665,0.0792,0.024
MGESLFKGPRDYNPISSSICHLTNESDGHTTSLYGIGFGPFIITNKHLFRRNNGTLVVQSLHGVFKVKDTTTLQQHLVDGRDMIIIRMPKDFPPFPQKLKFREPQREERICLVTTNFQTKSMSSMVSDTSCTFPSGDGIFWKHWIQTKDGQCGSPLVSTKDGFIVGIHSASNFTNTNNYFTSVPKNFMELLTNQEAQQWVSGWRLNADSVLWGGHKVFMVKPEEPFQPVKEATQL [R160K],0.0619,0.0747,,0.0592,,0.063,,,,0.0557,,,,0.0838,,,,0.0699,
MGESLFKGPRDYNPISSSICHLTNESDGHTTSLYGIGFGPFIITNKHLFRRNNGTLVVQSLHGVFKVKDTTTLQQHLVDGRDMIIIRMPKDFPPFPQKLKFREPQREERICLVTTNFQTKSMSSMVSDTSCTFPSGDGIFWKHWIQTKDGQCGSPLVSTVDGFIVGIHSASNFTNTNNYFTSVPKNFMELLTNQEAQQWVSGWRLNADSVLWGGHKVFMVKPEEPFQPVKEATQL [R160V],0.0527,0.0746,0.0657,0.0564,0.0531,0.0614,,,0.0743,0.0541,0.0681,0.0588,,0.0573,0.0894,0.0718,0.0621,,
MGESLFKGPRDYNPISSSICHLTNESDGHTTSLYGIGFGPFIITNKHLFRRNNGTLVVQSLHGVFKVKDTTTLQQHLVDGRDMIIIRMPKDFPPFPQKLKFREPQREERICLVTTNFQTKSMSSMVSDTSCTFPSGDGIFWKHWIQTKDGQCGSPLVSTRVGFIVGIHSASNFTNTNNYFTSVPKNFMELLTNQEAQQWVSGWRLNADSVLWGGHKVFMVKPEEPFQPVKEATQL [D161V],0.0438,0.0685,0.0574,0.0562,0.0532,0.0596,0.0528,0.0408,,0.0491,0.0544,0.0397,0.0455,,0.0627,0.0608,,0.0674,0.06
MGESLFKGPRDYNPISSSICHLTNESDGHTTSLYGIGFGPFIITNKHLFRRNNGTLVVQSLHGVFKVKDTTTLQQHLVDGRDMIIIRMPKDFPPFPQKLKFREPQREERICLVTTNFQTKSMSSMVSDTSCTFPSGDGIFWKHWIQTKDGQCGSPLVSTRDCFIVGIHSASNFTNTNNYFTSVPKNFMELLTNQEAQQWVSGWRLNADSVLWGGHKVFMVKPEEPFQPVKEATQL [G162C],0.0672,,0.0564,0.0527,0.0543,0.0601,,,0.055,0.0512,0.0495,0.0639,0.0092,0.0617,0.11,,0.0465,0.0698,0.0567
MGESLFKGPRDYNPISSSICHLTNESDGHTTSLYGIGFGPFIITNKHLFRRNNGTLVVQSLHGVFKVKDTTTLQQHLVDGRDMIIIRMPKDFPPFPQKLKFREPQREERICLVTTNFQTKSMSSMVSDTSCTFPSGDGIFWKHWIQTKDGQCGSPLVSTRDGFIEGIHSASNFTNTNNYFTSVPKNFMELLTNQEAQQWVSGWRLNADSVLWGGHKVFMVKPEEPFQPVKEATQL [V165E],0.0522,0.0536,0.0588,,0.0551,0.0433,0.0495,0.052,0.0623,0.0631,0.0521,0.0659,0.0664,0.0556,0.0508,0.0584,0.0558,0.0471,0.0523
MGESLFKGPRDYNPISSSICHLTNESDGHTTSLYGIGFGPFIITNKHLFRRNNGTLVVQSLHGVFKVKDTTTLQQHLVDGRDMIIIRMPKDFPPFPQKLKFREPQREERICLVTTNFQTKSMSSMVSDTSCTFPSGDGIFWKHWIQTKDGQCGSPLVSTRDGFIVGKHSASNFTNTNNYFTSVPKNFMELLTNQEAQQWVSGWRLNADSVLWGGHKVFMVKPEEPFQPVKEATQL [I167K],0.05,0.0587,,0.0568,0.0414,0.0561,0.0601,0.0364,0.0495,0.0564,,0.051,0.0456,0.0641,0.0556,0.0537,0.0524,0.056,0.0477
MGESLFKGPRDYNPISSSICHLTNESDGHTTSLYGIGFGPFIITNKHLFRRNNGTLVVQSLHGVFKVKDTTTLQQHLVDGRDMIIIRMPKDFPPFPQKLKFREPQREERICLVTTNFQTKSMSSMVSDTSCTFPSGDGIFWKHWIQTKDGQCGSPLVSTRDGFIVGIASASNFTNTNNYFTSVPKNFMELLTNQEAQQWVSGWRLNADSVLWGGHKVFMVKPEEPFQPVKEATQL [H168A],0.0689,,0.0593,0.0621,0.0561,,,,,,0.0544,,0.0572,,,,0.0542,0.0736,
MGESLFKGPRDYNPISSSICHLTNESDGHTTSLYGIGFGPFIITNKHLFRRNNGTLVVQSLHGVFKVKDTTTLQQHLVDGRDMIIIRMPKDFPPFPQKLKFREPQREERICLVTTNFQTKSMSSMVSDTSCTFPSGDGIFWKHWIQTKDGQCGSPLVSTRDGFIVGIDSASNFTNTNNYFTSVPKNFMELLTNQEAQQWVSGWRLNADSVLWGGHKVFMVKPEEPFQPVKEATQL [H168D],0.0463,0.0575,0.062,0.059,0.0486,0.0674,,0.0579,,0.0618,0.0652,0.0635,,0.0651,0.0587,0.0606,,0.0638,0.0564
MGESLFKGPRDYNPISSSICHLTNESDGHTTSLYGIGFGPFIITNKHLFRRNNGTLVVQSLHGVFKVKDTTTLQQHLVDGRDMIIIRMPKDFPPFPQKLKFREPQREERICLVTTNFQTKSMSSMVSDTSCTFPSGDGIFWKHWIQTKDGQCGSPLVSTRDGFIVGIESASNFTNTNNYFTSVPKNFMELLTNQEAQQWVSGWRLNADSVLWGGHKVFMVKPEEPFQPVKEATQL [H168E],0.0487,,0.0737,0.059,0.0625,0.0606,0.0647,0.0624,0.0629,0.0659,0.0485,0.0605,,0.0644,,0.0694,,0.0412,0.0587
